Laboratory results published in article PMC2739043 (Methods in molecular biology (Clifton, N.J.), 2009).

Target: the molecule itself
Assay: SEC

B1: C-terminal tetramerization domain of human p53 ([…]) (domain or fragment)
chain: not shown
Question: Which “stoichiometry N” value does the source give for B1 here?
Answer: Its value is 4.
